Measured values published in the supplement of paper PMC10126150.
Sequences with one replicate were seen in a single cluster, so their values are uncertain.

The sequences below were run on ATP (assay: switch fluorescence ratio, 500 uM ATP over buffer (Cy3 cluster intensity, sum of 5 cycles each) (fold (ratio)); higher = stronger signal-on switching upon ATP binding; sequences stand for … in TCGTCGGCAGCGTCAGATGTGTATAAGAGACAGTTTTTTTTTTTTTTTTTTTTTTTTT…TC). Conditions: aptamer strand: ATP DNA aptamer (quencher-CACCTGGGGGAGTATTGCGGAGGAAGG + anchor), 100 nM annealed; ATP concentration: 500 uM; one replicate.
Procedure, shortened: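 For every switch-domain sequence, the fluorescence ratio is the mean of per-cluster values, each being summed target-cycle Cy3 intensity over summed buffer-cycle Cy3 intensity. Clusters outside 100-1000 RFU were excluded. On a modified Illumina MiSeq flow-cell, the Cy3-labelled switching-strand clusters were annealed to 100 nM quencher-labelled ATP aptamer, imaged in selection buffer and then after 15 min with 500 uM ATP at 22 °C. Five such cycles were run, with NaOH stripping and re-annealing between them.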
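Note: ATP exposure 15 min at 22 °C before imaging.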

**Q.** For TTAAAATAAG, which switch fluorescence ratio is on record?
**A.** 1.04

**Q.** For TTAAAATTAC, which switch fluorescence ratio is on record?
**A.** 1.11

**Q.** Which switch fluorescence ratio does the source give for TTAAACCT here?
**A.** 2.58

**Q.** How did the switch fluorescence ratio turn out when TTAAAGGCGG was run?
**A.** 1.04

**Q.** TTAAATGAAC was tested. Which switch fluorescence ratio did it give?
**A.** 1.07

**Q.** TTAAATTAGG was tested. Which switch fluorescence ratio did it give?
**A.** 1.04

**Q.** TTAAATTCGG was tested. Which switch fluorescence ratio did it give?
**A.** 1

**Q.** Which switch fluorescence ratio does the source give for TTAAATTCTA here?
**A.** 0.996

**Q.** How did the switch fluorescence ratio turn out when TTAAATTGTA was run?
**A.** 1.03

**Q.** TTAACAAACC was tested. Which switch fluorescence ratio did it give?
**A.** 1.01

**Q.** With TTAACCAAAA as the sequence, how does the switch fluorescence ratio read?
**A.** 1.02

**Q.** How did the switch fluorescence ratio turn out when TTAACCCTAA was run?
**A.** 1.06

**Q.** Which switch fluorescence ratio does the source give for TTAACCTTCT here?
**A.** 2.15

**Q.** Which switch fluorescence ratio does the source give for TTAACGACGG here?
**A.** 1.04

**Q.** For TTAACTATAC, which switch fluorescence ratio is on record?
**A.** 1.31

**Q.** With TTAAGACATG as the sequence, how does the switch fluorescence ratio read?
**A.** 0.992

**Q.** Which switch fluorescence ratio does the source give for TTAAGCCCGC here?
**A.** 1.06

**Q.** With TTAAGCGCA as the sequence, how does the switch fluorescence ratio read?
**A.** 1.03

**Q.** How did the switch fluorescence ratio turn out when TTAAGGAACC was run?
**A.** 0.969

**Q.** Which switch fluorescence ratio does the source give for TTAAGGATGA here?
**A.** 0.975

**Q.** Which switch fluorescence ratio does the source give for TTAAGGGAC here?
**A.** 1.12

**Q.** TTAAGGTAGT was tested. Which switch fluorescence ratio did it give?
**A.** 0.978

**Q.** Which switch fluorescence ratio does the source give for TTAAGGTCCC here?
**A.** 1.05

**Q.** With TTAAGTTCCC as the sequence, how does the switch fluorescence ratio read?
**A.** 0.996

**Q.** With TTAATACCAC as the sequence, how does the switch fluorescence ratio read?
**A.** 1.05

**Q.** How did the switch fluorescence ratio turn out when TTAATAGCTC was run?
**A.** 0.975

**Q.** With TTAATATCT as the sequence, how does the switch fluorescence ratio read?
**A.** 1.01

**Q.** How did the switch fluorescence ratio turn out when TTAATCGATC was run?
**A.** 1.01

**Q.** For TTAATCTCGA, which switch fluorescence ratio is on record?
**A.** 0.99

**Q.** TTAATCTG was tested. Which switch fluorescence ratio did it give?
**A.** 1.04

**Q.** For TTAATCTTG, which switch fluorescence ratio is on record?
**A.** 1.01

**Q.** With TTAATGCATA as the sequence, how does the switch fluorescence ratio read?
**A.** 1.02

**Q.** Which switch fluorescence ratio does the source give for TTAATGCTCG here?
**A.** 1.01

**Q.** Which switch fluorescence ratio does the source give for TTAATTCGGA here?
**A.** 0.954

**Q.** With TTAATTCTAG as the sequence, how does the switch fluorescence ratio read?
**A.** 0.972

**Q.** Which switch fluorescence ratio does the source give for TTAATTGACT here?
**A.** 1.05

**Q.** How did the switch fluorescence ratio turn out when TTAATTGTG was run?
**A.** 0.96

**Q.** TTACAAGCTT was tested. Which switch fluorescence ratio did it give?
**A.** 1.03

**Q.** For TTACAATC, which switch fluorescence ratio is on record?
**A.** 1.03

**Q.** TTACAGAGTC was tested. Which switch fluorescence ratio did it give?
**A.** 1.02

**Q.** With TTACAGATCT as the sequence, how does the switch fluorescence ratio read?
**A.** 0.972

**Q.** For TTACAGTCTG, which switch fluorescence ratio is on record?
**A.** 0.993

**Q.** TTACATGCGG was tested. Which switch fluorescence ratio did it give?
**A.** 0.992

**Q.** Which switch fluorescence ratio does the source give for TTACATTAAG here?
**A.** 1.05

**Q.** How did the switch fluorescence ratio turn out when TTACCAAGA was run?
**A.** 1.02

**Q.** Which switch fluorescence ratio does the source give for TTACCAGAGG here?
**A.** 0.983

**Q.** How did the switch fluorescence ratio turn out when TTACCGATGT was run?
**A.** 1

**Q.** Which switch fluorescence ratio does the source give for TTACCTCCAT here?
**A.** 1.07

**Q.** TTACCTGCCG was tested. Which switch fluorescence ratio did it give?
**A.** 1.13

**Q.** Which switch fluorescence ratio does the source give for TTACCTTCGG here?
**A.** 0.951

**Q.** For TTACGAATAA, which switch fluorescence ratio is on record?
**A.** 1.04

**Q.** For TTACGATTAC, which switch fluorescence ratio is on record?
**A.** 1.43

**Q.** TTACGGAATG was tested. Which switch fluorescence ratio did it give?
**A.** 1.05

**Q.** Which switch fluorescence ratio does the source give for TTACGGCACC here?
**A.** 1.81

**Q.** For TTACGGCAGA, which switch fluorescence ratio is on record?
**A.** 1.08

**Q.** For TTACGTTCCC, which switch fluorescence ratio is on record?
**A.** 1.72

**Q.** Which switch fluorescence ratio does the source give for TTACGTTCG here?
**A.** 1.08

**Q.** Which switch fluorescence ratio does the source give for TTACTAAGGC here?
**A.** 0.986

**Q.** How did the switch fluorescence ratio turn out when TTACTACAAG was run?
**A.** 1.03

**Q.** With TTACTATTGA as the sequence, how does the switch fluorescence ratio read?
**A.** 1

**Q.** TTACTCAATC was tested. Which switch fluorescence ratio did it give?
**A.** 1.08

**Q.** TTACTCTAAA was tested. Which switch fluorescence ratio did it give?
**A.** 1.07

**Q.** Which switch fluorescence ratio does the source give for TTACTCTGCG here?
**A.** 1.2

**Q.** How did the switch fluorescence ratio turn out when TTACTGAGCG was run?
**A.** 1

**Q.** For TTACTGAGCT, which switch fluorescence ratio is on record?
**A.** 1.06

**Q.** Which switch fluorescence ratio does the source give for TTACTGGGCG here?
**A.** 0.964

**Q.** For TTACTGGTCT, which switch fluorescence ratio is on record?
**A.** 1.03

**Q.** With TTACTGTATA as the sequence, how does the switch fluorescence ratio read?
**A.** 1.19

**Q.** TTACTTAATA was tested. Which switch fluorescence ratio did it give?
**A.** 0.973

**Q.** How did the switch fluorescence ratio turn out when TTACTTAGTT was run?
**A.** 1.06

**Q.** With TTACTTATA as the sequence, how does the switch fluorescence ratio read?
**A.** 1.04

**Q.** With TTACTTTAGA as the sequence, how does the switch fluorescence ratio read?
**A.** 1.02

**Q.** With TTACTTTTTA as the sequence, how does the switch fluorescence ratio read?
**A.** 0.994

**Q.** How did the switch fluorescence ratio turn out when TTACTTTTTG was run?
**A.** 1.04

**Q.** How did the switch fluorescence ratio turn out when TTAGAACCAT was run?
**A.** 1.04

**Q.** Which switch fluorescence ratio does the source give for TTAGAAGACG here?
**A.** 1.03

**Q.** Which switch fluorescence ratio does the source give for TTAGACGACC here?
**A.** 1.17

**Q.** How did the switch fluorescence ratio turn out when TTAGAGATGG was run?
**A.** 0.981

**Q.** TTAGAGTCGC was tested. Which switch fluorescence ratio did it give?
**A.** 1.01

**Q.** Which switch fluorescence ratio does the source give for TTAGATCAAA here?
**A.** 1.02

**Q.** Which switch fluorescence ratio does the source give for TTAGATCGTC here?
**A.** 0.971

**Q.** How did the switch fluorescence ratio turn out when TTAGATGTGT was run?
**A.** 1.01

**Q.** For TTAGATTGAT, which switch fluorescence ratio is on record?
**A.** 1.01

**Q.** With TTAGCAAAAG as the sequence, how does the switch fluorescence ratio read?
**A.** 1.12

**Q.** TTAGCACCAT was tested. Which switch fluorescence ratio did it give?
**A.** 0.992

**Q.** TTAGCAGGGG was tested. Which switch fluorescence ratio did it give?
**A.** 1.08

**Q.** TTAGCATCGT was tested. Which switch fluorescence ratio did it give?
**A.** 1.01

**Q.** With TTAGCCCCTT as the sequence, how does the switch fluorescence ratio read?
**A.** 1.02

**Q.** TTAGCCGGAG was tested. Which switch fluorescence ratio did it give?
**A.** 0.991

**Q.** TTAGCCTTGA was tested. Which switch fluorescence ratio did it give?
**A.** 1.04

**Q.** For TTAGCGCGGC, which switch fluorescence ratio is on record?
**A.** 1.08

**Q.** For TTAGCGTGAA, which switch fluorescence ratio is on record?
**A.** 1.09

**Q.** How did the switch fluorescence ratio turn out when TTAGGAACA was run?
**A.** 1.03

**Q.** For TTAGGAACCA, which switch fluorescence ratio is on record?
**A.** 1.1

**Q.** Which switch fluorescence ratio does the source give for TTAGGAGAAG here?
**A.** 0.964

**Q.** With TTAGGAGGAA as the sequence, how does the switch fluorescence ratio read?
**A.** 0.972

**Q.** TTAGGATGCT was tested. Which switch fluorescence ratio did it give?
**A.** 0.994

**Q.** With TTAGGTCTA as the sequence, how does the switch fluorescence ratio read?
**A.** 1.01

**Q.** TTAGTATTGA was tested. Which switch fluorescence ratio did it give?
**A.** 0.987

**Q.** Which switch fluorescence ratio does the source give for TTAGTCAGTT here?
**A.** 1.01

**Q.** TTAGTGAATT was tested. Which switch fluorescence ratio did it give?
**A.** 1.02
